Data from the supplement of paper PMC7826260.
The other results are listed elsewhere or left out. Viral Rep nickase domains cut single-stranded DNA in vitro at 3 µM enzyme and 37 °C for 1 h; the strands have 90 letters, of which the middle is given. A value is the log2 ratio of uncut reads to the pool without enzyme; strong cutting gives strongly negative numbers. There is no active / inactive call. Because reads are shares of a total, they shift together; where an enzyme cuts many sequences, the uncut ones exceed 0.

Assays:
Test in all cases: uncleaved DNA left, log2 of reads against the no-enzyme library (log2 ratio); higher = less cleavage (more negative = more Rep cleavage of the k-mer); sequences stand for … in CTCGTCCG…ACCGGAGA
[1] = test system: T1, Rep nickase domain of Muscovy duck circovirus
T1 sequence (protein, residues 1-111, tag omitted): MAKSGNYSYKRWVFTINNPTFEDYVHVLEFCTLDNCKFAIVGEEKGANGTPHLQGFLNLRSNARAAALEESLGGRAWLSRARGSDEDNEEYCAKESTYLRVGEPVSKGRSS
Method: (§1)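 A pool of 90-nt single-stranded DNAs with seven random bases just before the constant AC of the nick site (name = the seven bases) was cut by 3 µM recombinant His6-SUMO-tagged Rep nickase domain (300 nM DNA, 50 mM HEPES pH 8.0, 50 mM NaCl, 1 mM MnCl2, 1 h, 37 °C, three replicates). Uncut DNA was amplified and sequenced.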

[2] = test system: T2, Rep nickase domain of banana bunchy top virus
T2 sequence (protein, residues 1-94, tag omitted): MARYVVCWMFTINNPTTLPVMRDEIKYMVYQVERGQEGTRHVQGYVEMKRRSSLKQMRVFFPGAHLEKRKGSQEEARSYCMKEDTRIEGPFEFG
Method: as §1

[3] = test system: T3, Rep nickase domain of cabbage leaf curl virus
T3 sequence (protein, residues 1-116, tag omitted): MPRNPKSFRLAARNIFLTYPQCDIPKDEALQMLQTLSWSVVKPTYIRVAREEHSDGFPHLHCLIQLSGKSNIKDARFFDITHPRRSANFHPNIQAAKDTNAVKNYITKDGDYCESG
Method: as §1

[4] = test system: T4, Rep nickase domain of chickpea chlorotic dwarf virus
T4 sequence (protein, residues 1-124, tag omitted): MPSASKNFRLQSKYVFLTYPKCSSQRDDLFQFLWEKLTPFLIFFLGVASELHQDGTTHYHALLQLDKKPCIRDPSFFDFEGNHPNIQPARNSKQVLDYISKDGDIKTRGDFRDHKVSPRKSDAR
Method: as §1

[5] = test system: T5, Rep nickase domain of faba bean necrotic yellows virus
T5 sequence (protein, residues 1-98, tag omitted): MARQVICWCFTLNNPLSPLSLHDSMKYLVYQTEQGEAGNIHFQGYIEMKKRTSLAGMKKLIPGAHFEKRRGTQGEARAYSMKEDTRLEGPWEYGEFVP
Method: as §1

[6] = test system: T6, Rep nickase domain of maize striate mosaic virus
T6 sequence (protein, residues 1-117, tag omitted): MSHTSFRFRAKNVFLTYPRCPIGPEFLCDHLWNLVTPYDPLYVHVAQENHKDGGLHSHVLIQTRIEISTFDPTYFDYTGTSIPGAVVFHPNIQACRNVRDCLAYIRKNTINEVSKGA
Method: as §1

[7] = test system: T7, Rep nickase domain of porcine circovirus 2
T7 sequence (protein, residues 2-116, tag omitted): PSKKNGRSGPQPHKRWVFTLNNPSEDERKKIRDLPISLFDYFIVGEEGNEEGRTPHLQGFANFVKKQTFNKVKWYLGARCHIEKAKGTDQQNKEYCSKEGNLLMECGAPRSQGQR
Method: as §1

[8] = test system: T8, Rep nickase domain of tomato yellow leaf curl virus
T8 sequence (protein, residues 1-136, tag omitted): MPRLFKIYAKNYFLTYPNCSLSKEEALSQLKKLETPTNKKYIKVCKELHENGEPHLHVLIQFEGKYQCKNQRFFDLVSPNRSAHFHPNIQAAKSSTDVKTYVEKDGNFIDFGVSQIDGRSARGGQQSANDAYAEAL
Method: as §1

[9] = test system: T9, Rep nickase domain of wheat dwarf virus
T9 sequence (protein, residues 1-137, tag omitted): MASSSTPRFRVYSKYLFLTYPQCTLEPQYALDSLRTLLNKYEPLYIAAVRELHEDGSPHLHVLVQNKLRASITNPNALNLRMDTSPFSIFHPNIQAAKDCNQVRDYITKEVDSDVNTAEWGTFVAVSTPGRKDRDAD
Method: as §1

Sequence	uncleaved DNA left (log2) [1]	uncleaved DNA left (log2) [2]	uncleaved DNA left (log2) [3]	uncleaved DNA left (log2) [4]	uncleaved DNA left (log2) [5]	uncleaved DNA left (log2) [6]	uncleaved DNA left (log2) [7]	uncleaved DNA left (log2) [8]	uncleaved DNA left (log2) [9]
AACCGGT	-0.213	-0.219	0.104	0.434	-0.18	0.865	-0.161	-0.269	-0.0425
GCTAGCG	0.112	0.0518	-0.382	0.932	0.0567	0.167	0.0704	0.0373	0.0497
TGAGACT	-0.0563	-0.0438	0.141	0.449	-0.12	1.57	0.0704	-0.00509	0.05
GAGCCCG	-0.0589	-0.112	-0.519	-0.38	-0.063	-0.571	-0.0503	-0.106	-0.0793
ATAGACG	0.0555	0.109	-0.661	-0.533	0.0296	-1.19	0.192	0.0861	-0.0595
ATTTGGT	-0.571	-0.425	-0.123	-0.0856	-0.0211	-0.256	-1.55	-0.0401	-0.0872
CTCTCTA	-0.0947	0.0883	-0.0158	-1.09	-0.0278	-0.431	-0.152	0.0548	-0.0551
AGGCAAA	-0.0444	0.0951	0.319	0.658	-0.0105	0.371	0.0756	0.0762	0.176
GGCTTAC	0.0573	0.0554	0.415	0.548	-0.0816	1.66	0.0419	-0.0697	0.133
GGTATAT	0.135	0.265	0.869	1.87	0.0653	2.23	0.241	0.159	0.28
GCTAAGT	0.0229	-0.0587	0.0434	0.183	0.0519	-0.315	-0.0357	0.119	-0.0659
GTTTCTT	-0.269	0.0867	0.337	0.61	-0.0483	1.74	-0.402	0.158	0.118
CCGGACC	-0.135	-0.0807	0.126	0.501	-0.119	0.763	-0.0152	-0.0148	-0.0898
TTGCCAG	0.0611	-0.0112	-0.771	0.0504	0.0747	-0.925	-0.239	0.206	-0.156
ATTGGGT	-0.0266	0.0177	0.0569	0.985	-0.0513	0.877	0.112	-0.0764	-0.125
CAGCCCG	-0.0454	-0.0572	-0.764	-0.361	-0.112	-0.961	0.0319	-0.0865	-0.198
TATACAG	0.0739	0.00652	-0.733	-1.17	0.0501	-1.1	0.205	0.0171	0.0727
CTGGTTT	0.02	-0.175	0.203	-0.963	0.0708	0.419	-0.0133	-0.0124	-0.0518
CTCAGGG	-0.0815	-0.0339	-0.133	0.208	-0.195	-0.428	0.11	-0.00881	0.0125
TACAAAT	-0.0475	-0.1	-0.937	-2.65	0.0342	-0.661	-2.52	-0.114	-0.00713
AGCGGAA	0.165	0.201	0.162	0.684	-0.0358	1.02	-0.238	0.0558	0.221
GTACGTT	-0.0992	-0.177	0.0751	0.211	-0.083	1.53	-0.0275	-0.121	-0.184

Sequence	uncleaved DNA left (log2) [1]	uncleaved DNA left (log2) [2]	uncleaved DNA left (log2) [3]	uncleaved DNA left (log2) [4]	uncleaved DNA left (log2) [5]	uncleaved DNA left (log2) [6]	uncleaved DNA left (log2) [7]	uncleaved DNA left (log2) [8]	uncleaved DNA left (log2) [9]
AGGAAGA	0.0437	0.137	0.298	0.613	0.107	-0.0343	0.113	0.0124	0.155
ACCCACT	-0.0412	0.0177	-0.447	-2.5	-0.0035	-0.841	-0.26	-0.0542	-0.145
GCAGTAC	0.0792	0.0111	0.0274	0.0726	0.0252	-0.151	0.0826	-0.0259	0.0133
AGGCTGT	-0.0955	-0.0102	0.226	1.27	0.0562	1.67	0.17	-0.0608	-0.0268
TGTTTTA	0.138	-0.0163	0.438	0.365	0.0111	1.51	0.0534	0.148	0.0568
GGTCGCC	0.0909	0.126	0.416	0.906	0.00307	1.22	0.143	0.0818	0.105
AGCATTA	0.0643	0.0932	-0.0955	-0.522	0.0372	-0.307	-1.11	-0.0512	0.0681
ACTTTAG	0.237	0.0941	-0.673	-0.268	0.0851	-1.1	0.16	0.0692	0.0384
GGAATAC	0.0424	0.182	0.683	1.47	0.0374	1.88	0.259	0.124	0.259
CGTTATT	-2.74	-2.71	-0.336	-2.1	-0.46	-0.117	-3.55	0.103	-0.79
TTACAAG	0.0835	-0.00024	-0.952	-1.39	0.0186	-1.33	0.0526	-0.0287	-0.0677
GCGACGA	0.0906	0.169	0.269	0.893	0.0785	1.52	0.212	-0.00933	0.107
GTAGACA	0.106	0.253	0.693	1.6	0.0515	2.09	0.271	0.0941	0.137
TCTAGTA	-0.0537	-0.186	-0.00233	-1.04	0.00866	-0.501	-0.142	0.0208	-0.131
CCAACCT	-0.223	-0.093	-0.343	-2.51	-0.0966	-0.372	-0.823	-0.0577	-0.0641
GAAGACT	0.0919	0.162	0.373	0.531	0.0409	1.84	0.276	0.075	0.233
GCCCAGT	-0.125	0.0494	0.0719	0.156	-0.0857	-0.219	0.0404	0.0541	0.124
ACCTCCT	-0.139	-0.0689	-0.211	-1.43	-0.101	0.121	-0.619	-0.174	0.0314
TGAACCA	-0.114	0.0284	0.176	-0.855	-0.0293	0.161	-0.4	-0.0337	0.103
GAATACC	0.0184	0.0703	-1.36	-2.02	0.0292	0.447	-0.245	0.0386	-0.0745
AGGATTA	-0.0216	0.0617	-0.00818	0.107	-0.0286	0.738	-0.217	-0.127	0.0384
GACGACA	-0.0899	0.0489	0.413	0.605	-0.0236	1.48	-0.123	0.00906	0.129

Sequence	uncleaved DNA left (log2) [1]	uncleaved DNA left (log2) [2]	uncleaved DNA left (log2) [3]	uncleaved DNA left (log2) [4]	uncleaved DNA left (log2) [5]	uncleaved DNA left (log2) [6]	uncleaved DNA left (log2) [7]	uncleaved DNA left (log2) [8]	uncleaved DNA left (log2) [9]
TGACTTA	0.117	0.137	0.12	0.277	0.12	0.916	-0.0573	0.0401	0.0554
ACTTTTA	-0.158	-0.145	-0.348	-1.84	0.0955	-0.749	-0.129	-0.121	-0.0221
ATCACGA	0.0257	-0.0516	-0.418	-0.45	0.0878	-1.09	0.114	0.0162	-0.115
GATTGTC	0.112	0.0802	-0.116	0.106	0.000177	-0.636	-0.0321	0.135	0.0552
GTCTGAT	-0.000575	-0.0261	0.278	0.732	-0.171	1.56	-0.278	0.0379	-0.0263
ATACGGA	0.155	0.0623	0.212	0.393	0.0477	0.106	0.146	-0.0487	0.0482
ACAGGGC	-0.103	-0.088	-0.435	-0.254	-0.131	-0.844	-0.0533	-0.0948	-0.16
TGGAACC	0.0295	0.112	0.51	0.93	0.0259	1.35	-0.0592	0.222	0.117
TCAACCC	-0.432	-0.000114	0.0879	-1.73	-0.0489	-0.339	-1.16	-0.075	0.0623
AGTCCCG	-0.162	-0.0783	-0.449	0.118	0.0893	-0.654	-0.353	-0.0246	-0.0262
TACAGAC	0.0735	0.126	0.065	-0.115	0.122	-0.242	0.222	0.0502	0.156
GCTCTAC	0.121	-0.00813	-0.000979	-0.495	-0.0742	0.0613	0.00899	-0.0183	-0.0435
AGTCACG	-0.0501	-0.149	-0.799	-0.581	0.0154	-1.2	0.0394	-0.0766	-0.12
TCTCGCA	0.0111	0.0871	-0.372	-0.779	0.00932	-0.987	0.0212	0.0705	-0.0676
TAGTCCC	-0.24	-0.208	-0.0827	-0.478	-0.372	0.206	-3.19	-0.166	-0.121
TTCCAGG	-0.109	-0.124	0.286	1.25	-0.262	1.69	-0.115	-0.18	-0.0312
ATCACTG	-0.0438	0.0311	-0.138	0.362	-0.0361	0.527	0.0124	-0.0332	0.0485
CTATGGC	-0.0791	-0.166	-0.605	-0.695	-0.149	-1.16	-0.178	-0.172	-0.196
CTTCTAT	-0.0166	-0.0788	0.0793	-0.761	0.0642	-0.528	-0.00978	0.24	0.196
GAGGCAG	0.167	0.113	0.797	1.76	0.0722	1.77	0.297	0.106	0.196
